# In all, about 110,000 compounds were measured (“z-score”: median about -0.1, highest 2% from about 2 on). The list shows a part of the results. The source made the active and inactive calls.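 The calls were made as follows: active = z-score in the third read window above 3 or below -3; inactive = the rest.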
# Molecular target: Metabotropic glutamate receptor 8 (Rattus norvegicus) (UniProt P70579)
# Assay: rat mGluR8 modulators via GIRK flux, primary screen, cell-based, thallium flux, HTS (AID 488969)
# Settings: HEK293 rat mGluR8, GIRK (G protein-gated inwardly rectifying potassium channel) thallium flux, FluoZin2; at 10 µM; stronger effect = higher value; submaximal glutamate (EC20) added with thallium
# Sequence of UniProt P70579 (P70579 whole entry, looked up): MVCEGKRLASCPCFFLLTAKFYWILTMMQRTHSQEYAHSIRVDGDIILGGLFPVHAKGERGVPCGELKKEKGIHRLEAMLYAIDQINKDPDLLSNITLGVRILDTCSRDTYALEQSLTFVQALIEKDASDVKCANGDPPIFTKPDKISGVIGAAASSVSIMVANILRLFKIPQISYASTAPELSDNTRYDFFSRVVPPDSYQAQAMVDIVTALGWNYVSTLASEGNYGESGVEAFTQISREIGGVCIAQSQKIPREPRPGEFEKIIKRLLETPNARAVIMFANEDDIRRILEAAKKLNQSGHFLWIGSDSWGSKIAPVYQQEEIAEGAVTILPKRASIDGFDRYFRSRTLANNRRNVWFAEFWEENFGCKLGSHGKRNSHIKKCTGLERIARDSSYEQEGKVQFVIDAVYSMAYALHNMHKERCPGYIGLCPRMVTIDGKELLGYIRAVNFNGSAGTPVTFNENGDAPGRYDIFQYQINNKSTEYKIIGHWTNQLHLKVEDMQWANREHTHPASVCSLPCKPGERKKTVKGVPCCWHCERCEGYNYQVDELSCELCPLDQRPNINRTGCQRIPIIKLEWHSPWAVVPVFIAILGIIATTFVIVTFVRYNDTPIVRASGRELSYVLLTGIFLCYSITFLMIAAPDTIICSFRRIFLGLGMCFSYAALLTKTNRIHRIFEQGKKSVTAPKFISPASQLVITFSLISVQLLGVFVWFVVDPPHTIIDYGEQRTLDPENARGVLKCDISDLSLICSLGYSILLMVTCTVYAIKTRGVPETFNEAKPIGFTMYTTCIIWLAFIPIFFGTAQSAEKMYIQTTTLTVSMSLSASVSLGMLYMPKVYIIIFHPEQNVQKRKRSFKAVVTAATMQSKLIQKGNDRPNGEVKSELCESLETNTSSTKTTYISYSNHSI
row,SMILES,z-score
1,O=C(Nc1ccccc1C(=O)O)c1ccc2ccccc2n1,-0.622
2,O=C(c1ccccc1)N(Cc1ccc(F)cc1)Cc1nc2ccccc2c(=O)[nH]1,0.0675
3,CCOC(=O)N1CCN(CC(=O)c2ccc3c(c2)CCN3)CC1,-0.375
4,COC(=O)c1cc(C(=O)OC)cc(N2C(=O)CC(Sc3nc(C)cc(C)n3)C2=O)c1 (centres undefined),0.178
5,Cc1ccc(C(=O)NCCNS(=O)(=O)c2ccccc2)cc1,-0.176
6,CC1(C)CC(=O)c2cc(OCC(=O)N3CCOCC3)ccc2O1,-0.0746
7,Cc1cccc(N2CCN(C(=O)c3cccc(N4C(=O)C5CC=CC(C)C5C4=O)c3)CC2)c1C (centres undefined),-0.0691
8,CC(C)Cc1nc(N2CCN(C(=O)C(C)C)CC2)c(C#N)c2c1CCC2,-1.48
9,Cc1cccc2nc(CSc3ccccc3C(=O)O)cn12,0.0313
10,O=C1NCC(O)=C1C=NCCO,-0.483
11,COc1ccc(-n2c(SCC#N)nc3ccccc3c2=O)cc1,-0.0748
12,O=C(CSCc1ccc(Cl)cc1)N/N=C/c1c(Cl)cccc1Cl,-0.11
13,Cc1nnc2n1NC(c1ccc(Cl)cc1)C(C(=O)N(C)C1CCCCC1)S2 (centres undefined),-0.576
14,CC(C)n1c(=S)[nH]c2ccccc2c1=O,active: 9.16
15,Cc1[nH]n(-c2ccccc2)c(=O)c1CCOC(=O)c1cccc(C(F)(F)F)c1,1.21
16,CCN1CCN(CC(=O)Nc2cccc(C)c2C)C(=O)C1=O,0.232
17,CCOc1cccc(N(C(=O)C2COc3ccccc3O2)C(C(=O)NC2CCCCC2)c2ccc(O)cc2)c1 (centres undefined),-0.0915
18,CC(=O)Cn1cnc2sc(-c3ccccc3)cc2c1=O,-0.0877
19,Cc1ccc(S(=O)(=O)NCC2CCC(C(=O)NCc3ccc4c(c3)OCO4)CC2)cc1 (centres undefined),-0.117
20,CN1C2C=C3C(C#N)=C(N)C(C#N)(C#N)C(c4ccc(Br)cc4)C3C1CC2 (centres undefined),0.361
21,O=C(c1ccco1)N1CCN(S(=O)(=O)c2ccc(F)cc2)CC1,0.471
22,O=C(Nc1ccc(F)cc1)C(Sc1nc2ccccc2[nH]1)c1ccccc1 (centres undefined),-0.0892

row,SMILES,z-score
1,CC(CCc1ccccc1)NC(=O)c1ccc(Br)o1 (centres undefined),-0.657
2,Cc1ccnc(N2CCN(c3c4c(c(C#N)c5nc6ccccc6n35)CCC4)CC2)c1,0.395
3,CCc1ccc(NC(=O)N(C2CCCCC2)C(C)c2cccnc2)cc1 (centres undefined),-0.49
4,C=CCn1c(NC(=O)c2ccccc2Cl)c(C#N)c2nc3ccccc3nc21,-0.248
5,CCCCSCc1ccc(C(=O)O)o1,-0.356
6,C/C(=N\NC(=O)c1ccc(NS(=O)(=O)c2cccs2)cc1)c1ccccc1,-0.109
7,O=C(CCCN1C(=O)c2ccccc2C1=O)OC1CSCC1NC(=O)c1ccccc1 (centres undefined),-0.17
8,Cc1ccc(-c2nc3ccccc3c(=O)n2NC(=O)c2cccs2)cc1,-0.0147
9,Cc1ccc(S(=O)(=O)NC(=O)NCc2ccccc2)cc1,-0.287
10,C=CCn1c(SCC(=O)N2CCc3ccccc3C2)nnc1-c1ccncc1,-0.255
11,O=C1C2C3C=CC(C3)C2C(=O)N1c1ccc(Cc2ccncc2)cc1 (centres undefined),-0.0666
12,N/C(=N\OC(=O)Cc1ccc(-c2ccccc2)cc1)c1cccc([N+](=O)[O-])c1,-0.141
13,CC(C)CNC(=S)NNC(=O)c1nn(C)cc1Cl,-0.246
14,Cc1cc(NC(=O)CSc2nc(-c3cccs3)cc(C(F)(F)F)n2)no1,-0.125
15,CCC(C)(C(=O)NC1CCCC1)N(Cc1ccco1)C(=O)c1ccccn1 (centres undefined),-0.181
16,CC(NC(=O)c1ccc(Cl)cc1)C(=O)N1CCCCC1 (centres undefined),-0.106
17,COc1ccc(N2C(=O)CC(c3ccc(OC(C)C)cc3)C2=O)cc1 (centres undefined),-0.209
18,Cn1c(CNC(=O)c2ccccc2)nnc1SCC(=O)N1CCN(c2ccccc2)CC1,-0.274
19,CC(SCc1cn2cc(Cl)ccc2n1)C(=O)O (centres undefined),0.409
20,CCCn1c(N)c(C(=O)CSc2nnc(C)n2Cc2ccccc2)c(=O)n(C)c1=O,0.481
21,Cn1c(CN2CCCC2)nc2cc(NC(=O)Nc3ccccc3)ccc21,0.0925
22,O=C(OCC(=O)N1CCN(C(=O)c2ccco2)CC1)c1ccccc1OCc1ccccc1,-1.45

row,SMILES,z-score
1,Cc1cc(C2=CC(C)(c3cc(C)oc3C)Nc3nc(C(F)(F)F)nn32)c(C)o1 (centres undefined),1.62
2,CCS(=O)(=O)n1nc(-c2ccccc2)nc1SCc1ccccc1,-0.149
3,CCn1cc(C2=NC(C)CO2)c2ccccc21 (centres undefined),-0.418
4,COc1ccc(C(C(=O)NCc2ccccc2)N(Cc2ccc3c(c2)OCO3)C(=O)c2cnccn2)cc1 (centres undefined),0.124
5,Cc1ccc(Cn2ccc(NC(=O)c3nn(C)cc3Cl)n2)cc1,-0.33
6,CCOC(=O)c1cc(NC(=O)N(C(C)C)C(C)C)c(C)nc1C,0.0304
7,Clc1ccc2nc(CSc3nc4ccccc4o3)cn2c1,-0.47
8,CCCC(=O)N(Cc1cc2ccccc2[nH]c1=O)c1ccccc1OC,-0.531
9,Nc1nc(CSc2nnnn2-c2ccc(Cl)cc2)nc(N2CCOCC2)n1,-0.179
10,Cc1cccc(C(C)C)c1NC(=O)C1CN(S(=O)(=O)c2ccccc2)CCN1S(=O)(=O)c1ccccc1 (centres undefined),-0.617
11,COC(=O)c1sc(-c2ccccc2)cc1NC(=O)c1ccc(F)cc1,-0.194
12,COc1ccc(CN(C(=O)c2nsc(Cl)c2Cl)C(C(=O)NC2CCCC2)c2ccc(C)cc2)cc1 (centres undefined),-0.151
13,O=C(Cc1cccc2ccccc12)OCn1nnc2ccccc2c1=O,-0.291
14,COc1ccc(-c2c(=O)n(OCc3ccccn3)c3ccccc3[n+]2[O-])cc1OC,-0.924
15,CCOC(=O)Cn1c(=NC(=O)CSC(C)=O)sc2cc(OC)ccc21,-0.254
16,COc1cc(C(=O)O/N=C2\CCCc3c2ccc(OC)c3[N+](=O)[O-])cc(OC)c1OC,0.405
17,Cc1cc(C(F)F)nn1CC(=O)NCc1ccc(Cl)cc1Cl,-0.113
18,Fc1ccc(N2N=C(c3cccs3)CC2c2ccco2)c(F)c1 (centres undefined),-0.0593
19,O=C(CCCSc1nc2ccccc2[nH]1)NCc1ccccc1Cl,-0.16
20,COc1ccccc1NC(=S)NCCSc1ccc(C)cc1,0.199
21,CSCCC(Nc1ccc(S(=O)(=O)N2CCOCC2)cc1[N+](=O)[O-])C(=O)OCC(=O)NCC(C)C (centres undefined),-0.305
22,CCOC(=O)c1c(C#N)cnn1-c1ccc(C)cc1,-0.142

row,SMILES,z-score
1,O=C(CSc1nc2ccccc2c(=O)n1Cc1ccco1)NCc1ccco1,-0.352
2,O=C(Nc1cccc2ccccc12)c1ccc(Cn2cc(Cl)cn2)cc1,-1.06
3,COc1ccc(CCNC(=O)Cc2cc(OCc3ccccc3)c(OC)cc2[N+](=O)[O-])cc1OC,-0.569
4,CC(C)CN(C(=O)COC(=O)c1cc2c(s1)CCC2)C1CCS(=O)(=O)C1 (centres undefined),-0.146
5,COc1ccc(C2=CC(c3cc(OC)c(OC)c(OC)c3)NC(=S)N2)cc1 (centres undefined),-0.549
6,CCOC(=O)Cn1nnc(-c2ccccc2)n1,-0.0293
7,CC(C)C(=O)NNC(=O)CSc1nc(C2CCCCC2)nc2ccccc12,0.405
8,COc1ccccc1NC(=O)NC1(C(=O)N2CCCCCC2)CCCCC1,0.445
9,CCCCCCCN(C(=O)CCl)c1ccccc1C,-0.153
10,CC(C)CNC(=S)NNC(=O)c1csc2c1CCCC2,-0.116
11,O=C1CC(N2CCN(C(c3ccccc3)c3ccccc3)CC2)C(=O)N1Cc1ccc(N2CCCC2=O)cc1 (centres undefined),-0.195
12,CCOC(=O)c1sc2ncn(C(C)C(=O)OC)c(=O)c2c1C (centres undefined),-0.879
13,CCOC(=O)c1cc2c(=O)n3ccccc3nc2n(CCOC)c1=NC(=O)C(C)(C)C,-0.316
14,Cc1ccccc1NC(=O)CSc1nc2c(c(-c3ccco3)c1C#N)CCCC2,-0.266
15,CCS(=O)(=O)N1Cc2ccccc2CC1C(=O)Nc1ccc(NC(C)=O)cc1 (centres undefined),0.163
16,CON1C(=O)C(=O)N(OC)C2CCCCCC21 (centres undefined),-0.169
17,O=C(CSc1nnc(CNC(=O)c2ccccc2F)o1)NCC1CCCO1 (centres undefined),-0.0835
18,Cn1c(NCCCN2CCOCC2)nc2c1c(=O)n(Cc1ccc(Cl)cc1)c(=O)n2C,0.0177
19,c1ccc2sc(Nc3nc4cc5c(cc4s3)OCO5)nc2c1,0.501
20,O=C(NCCCN1CCCC1=O)c1ccc2c(c1)NC(=O)c1ccccc1S2,-0.351
21,CCOC(=O)c1c(CC(C)C)csc1NC(C)=O,0.0593
22,Cc1cc(O)ccc1Nc1nc2ccccc2nc1Nc1ccc(O)cc1C,-1.19

row,SMILES,z-score
1,CC1=C(C(=O)OCCOC(C)C)C(c2cc3c(cc2Br)OCO3)CC(=O)N1 (centres undefined),-0.122
2,Nc1cccc(C2=Nc3cccc4cccc(c34)N2)c1,-0.148
3,COc1cc(OC)cc(C(=O)N2CCCc3ccccc32)c1,-0.088
4,O=C(O)C1C2C=CC(C2)C1C(=O)NCCC1=CCCCC1 (centres undefined),0.367
5,c1ccc(Nc2ccccn2)cc1,0.132
6,CCN(CC)S(=O)(=O)c1cc(NC(=O)CSc2nnc(-c3cccs3)o2)ccc1C,-0.183
7,Cn1cccc1Cc1nnc(SCC(=O)NCCc2ccccc2)n1-c1ccc(F)cc1,-2.82
8,COc1cc(CNc2ccc3[nH]c(=O)[nH]c3c2)ccc1OCC(=O)NC(C)(C)C,-0.964
9,CCC(=O)c1cc2c(cc1NC(=O)c1ccccc1)OCCO2,-0.258
10,Cc1cccc(C(=O)c2ccccc2C(=O)O)c1O,0.929
11,CCN(CC)S(=O)(=O)c1ccc(OC)c(NC(=O)CSc2ccccc2)c1,-0.541
12,CCOC(=O)c1csc(NC(=O)CSc2nnnn2-c2ccc(OC)cc2)n1,0.0329
13,Cc1nc(-c2ccccc2)c(-c2ccccc2)[nH]1,0.247
14,Cc1nn(-c2cccc(Cl)c2)c2nc(-c3ccco3)cc(C(=O)O)c12,-1.12
15,Cc1ccc(CNC(=O)Cc2csc(Nc3nc(=S)[nH]c4ccccc34)n2)cc1,active: 10.7
16,O=C(c1ccc(F)cc1)c1c[nH]c(C(=O)NCc2ccco2)c1,-0.337
17,C=CCOc1ccc(Cl)cc1CNCCCN1CCOCC1,-1.78
18,CCOC(=O)c1c(NC(=O)CCl)sc(C(=O)N(CC)CC)c1C,-0.691
19,COc1ccc(/C(O)=C2\C(=O)C(=O)N(CCN(C)C)C2c2cc(OC)c(OC)c(OC)c2)c(C)c1 (centres undefined),-1.04
20,S=C(NCCN1CCOCC1)Nc1ccc(Cl)cc1,-0.102
21,CCn1c(SCC(=O)N/N=C/c2cc(OC)c(OC)c(OC)c2)nc2ccccc21,-0.917
